Assay results as given in paper PMC3777995, “The Inhibitory Helix Controls the Intramolecular Conformational Switching of the C-Terminus of STIM1” (PLoS ONE, 2013).

Molecular target: the molecule itself
Experiment: SEC-MALS; 200 µl of 200 µM protein on Superdex 200 10/300 GL; 20 mM Tris-HCl pH 8.0, 200 mM NaCl, 1 mM DTT, 1 mM EDTA; 0.5 ml/min

B1: STIM1-CIS ([…] of STIM1-Ccyto) (domain or fragment)
chain: not shown
notes: STIM1, human, […] (CC1, IH and SOAR regions); source: E. coli, purified following the same protocol as CC1-IH
  stoichiometry N: 2

B2: STIM1-CIS-DelIH ([…] plus […]) (domain or fragment)
chain: not shown
notes: STIM1, human, […] with the IH region ([…]) deleted: […] joined to […]; source: E. coli, purified following the same protocol as CC1-IH
  stoichiometry N: 2
